7 compounds from the supplement of paper PMC12350171 can be followed below.

The test system of test [1] is Com20 synthetic gut community. Kind of test: Com20 community biomass OD578 after 24 h drug treatment relative to untreated (fraction of untreated control); higher = more community growth.
Test [2] has as its system Salmonella enterica Typhimurium (community: Com21 (Com20 + E. coli ED1a)). Kind of test: pathogen growth (luminescence or CFU) in drug-pretreated community relative to untreated community (fold of untreated control); higher = more pathogen expansion.
Test [3] relates to Salmonella enterica Typhimurium in Com20. Kind of test: S. Typhimurium luminescence in drug-pretreated Com20 relative to untreated Com20 (fold of untreated control); higher = more pathogen expansion.
Where [4] appears, read: drug pretreatment concentration 10 µM.
Where [5] appears, read: drug pretreatment concentration 20 µM.
[6] abbreviates: drug pretreatment concentration 40 µM.
Where [7] appears, read: drug pretreatment concentration 80 µM.
[8] abbreviates: drug pretreatment concentration 160 µM.
Where [9] appears, read: drug pretreatment concentration 2.5 µM.
The mark [10] stands for this setting: drug pretreatment concentration 5 µM.

Synthetic gut communities (20 or 21 species) grown anaerobically with drug for 24 h at the dose given, then challenged with the named pathogen. Pathogen growth (luminescence, or colony counts for V. cholerae) or community OD578 as fold of untreated communities, mean of three; above 1 = more growth. No active / inactive call.

For `CCC[C@@H]1C[C@@H](C(=O)N[C@@H]([C@H]2O[C@H](SC)[C@H](O)[C@@H](O)[C@H]2O)[C@H](C)Cl)N(C)C1` [Clindamycin], the “Com20 community biomass OD578” value in test [1] (setting [4]) was found to be 0.002; in test [1] (setting [5]), 0.004; in test [1] (setting [6]), 0.001; in test [1] (setting [7]), 0.003; in test [1] (setting [8]), 0.006. Also, the pathogen growth worked out at 4.4 in test [2] (setting [4]), 3.9 in test [2] (setting [5]) and 3.68 in test [2] (setting [6]).
Take `C[C@H]1c2cccc(O)c2C(=O)C2=C(O)[C@]3(O)C(=O)C(C(N)=O)=C(O)[C@@H](N(C)C)[C@@H]3[C@@H](O)[C@@H]21` [Doxycycline]: the “Com20 community biomass OD578” value in test [1] (setting [4]) turned out to be 0.018; in test [1] (setting [5]), 0.002; in test [1] (setting [6]), 0.006; in test [1] (setting [7]) it was 0.007; in test [1] (setting [8]), 0.007.
Turning to `CNCCCC1c2ccccc2C=Cc2ccccc21` [Protriptyline], the “S. Typhimurium luminescence” value in test [3] (setting [4]) is 1.48; in test [3] (setting [5]), 1.17; in test [3] (setting [6]), 0.997; in test [3] (setting [7]) it was 1.22; in test [3] (setting [8]), 1.78. For the same compound, the pathogen growth in test [2] (setting [4]) is 1.12; in test [2] (setting [5]), 1.4; in test [2] (setting [6]), 1.2; in test [2] (setting [7]) it was 1.31; in test [2] (setting [8]), 2.21.
Take `CC/C(=C(\c1ccccc1)c1ccc(OCCN(C)C)cc1)c1ccccc1` [Tamoxifen]: the “S. Typhimurium luminescence” value in test [3] (setting [9]) worked out at 1.42; in test [3] (setting [10]) it was 1.07; in test [3] (setting [4]) it was 1.08; in test [3] (setting [5]), 0.813; in test [3] (setting [6]), 1.44. Besides, the pathogen growth in test [2] (setting [9]) is 1.05; in test [2] (setting [10]), 1.06; in test [2] (setting [4]), 1; in test [2] (setting [5]), 0.839; in test [2] (setting [6]) it was 1.59.
As to `NC[C@H]1O[C@H](O[C@H]2[C@H](O)[C@@H](O[C@H]3O[C@H](CO)[C@@H](O)[C@H](N)[C@H]3O)[C@H](N)C[C@@H]2N)[C@H](N)C[C@@H]1O` [Tobramycin], the “S. Typhimurium luminescence” value was 1.66 in test [3] (setting [4]); 0.901 in test [3] (setting [5]); 0.799 in test [3] (setting [6]); 0.769 in test [3] (setting [7]); 0.357 in test [3] (setting [8]). The pathogen growth in test [2] (setting [4]) is 1.11; in test [2] (setting [5]) it was 1.27; in test [2] (setting [6]), 1.52; in test [2] (setting [7]) it was 4.91; in test [2] (setting [8]) it was 1.8.
Regarding `Cc1c(Cl)cccc1Nc1ccccc1C(=O)O` [Tolfenamic acid], the “S. Typhimurium luminescence” value in test [3] (setting [4]) stood at 1.57; in test [3] (setting [5]), 1.06; in test [3] (setting [6]), 1.19; in test [3] (setting [7]), 1.26; in test [3] (setting [8]) it was 2.59. In addition, the pathogen growth in test [2] (setting [4]) came out at 0.982; in test [2] (setting [5]), 0.906; in test [2] (setting [6]), 0.946; in test [2] (setting [7]), 0.943; in test [2] (setting [8]), 1.29.
For `CCOC1O[C@H]([C@@H](COCc2ccccc2)OCc2ccccc2)[C@H](OCc2ccccc2)[C@H]1O` (stereo partly drawn) [Tribenoside], the “S. Typhimurium luminescence” value in test [3] (setting [4]) was determined as 1.36; in test [3] (setting [5]) it was 0.797; in test [3] (setting [6]), 0.894; in test [3] (setting [7]), 0.935; in test [3] (setting [8]), 1.22. Further, the pathogen growth worked out at 1.45 in test [2] (setting [4]); 1.19 in test [2] (setting [5]); 1.02 in test [2] (setting [6]); 0.956 in test [2] (setting [7]); 0.685 in test [2] (setting [8]).
